{"source": "PubChem BioAssay AID1468", "about": "(National Center for Advancing Translational Sciences (NCATS), 2008)", "note": "In all, about 280,000 compounds went through this assay and about 1,100 (0.39%) were called active. Inconclusive results, whose numbers are uncertain, are shown with a selection of clear calls. Calls come from the whole dose curve; as a rule, active = well fitted inhibition curve with a large enough effect; inconclusive = small, poorly fitted or top-dose-only effect, or effect the other way; inactive = flat fitted curve, though single readings scatter. No potency is given beside an inconclusive call; the fits are too rough. Potency is the fitted concentration of half-maximal effect; tags give direction and shape of the fitted curve.", "data": [{"target": "Microtubule-associated protein tau (Homo sapiens) (UniProt P10636)", "sequence (P10636 whole entry, looked up)": "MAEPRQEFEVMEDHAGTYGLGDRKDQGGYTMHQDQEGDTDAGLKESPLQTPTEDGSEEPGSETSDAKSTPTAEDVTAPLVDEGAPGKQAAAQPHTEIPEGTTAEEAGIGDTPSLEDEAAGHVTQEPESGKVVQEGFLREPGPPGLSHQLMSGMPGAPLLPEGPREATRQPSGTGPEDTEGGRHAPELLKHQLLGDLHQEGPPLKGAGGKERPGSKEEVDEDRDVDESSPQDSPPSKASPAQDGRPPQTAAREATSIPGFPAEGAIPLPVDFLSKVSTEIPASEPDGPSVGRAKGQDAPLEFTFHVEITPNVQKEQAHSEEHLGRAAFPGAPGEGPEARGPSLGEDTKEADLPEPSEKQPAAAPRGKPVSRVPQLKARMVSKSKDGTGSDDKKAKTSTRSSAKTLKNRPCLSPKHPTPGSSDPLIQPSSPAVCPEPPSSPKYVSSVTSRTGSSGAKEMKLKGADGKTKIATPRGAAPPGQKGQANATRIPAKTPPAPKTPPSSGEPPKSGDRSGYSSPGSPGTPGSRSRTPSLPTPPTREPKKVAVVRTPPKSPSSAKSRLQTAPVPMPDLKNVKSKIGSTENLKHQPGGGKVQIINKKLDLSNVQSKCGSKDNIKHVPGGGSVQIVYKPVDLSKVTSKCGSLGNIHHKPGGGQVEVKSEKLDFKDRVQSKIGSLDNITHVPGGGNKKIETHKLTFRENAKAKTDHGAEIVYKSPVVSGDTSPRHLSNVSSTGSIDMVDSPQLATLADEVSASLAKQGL", "test": "qHTS for Inhibitors of Tau Fibril Formation, Fluorescence Polarization; note: nearly all actives have a fitted effect of over 55% in size", "settings": "K18 P301L tau heparin fibrillization, Alexa594 FP, 6 h; series mostly up to 57.7 µM", "in_short": "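K18 P301L tau (15 uM unlabeled/0.24 uM Alexa 594-labeled, final) + compound + heparin 20 uM final; 100 mM NaOAc pH 7; 6 hr 37 C; ThT 30 uM final added, 1 hr RT; FP ex 555/em 632 nm.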", "values": [{"compound": "Cc1ccc(O)c(CNn2cnnc2)c1", "Potency": "inactive"}, {"compound": "CC(C)Cn1c(N)c(C(=O)CSc2ncnc3sc4c(c23)CCCC4)c(=O)n(C)c1=O", "Potency": "inconclusive [inhibitor, single point]"}, {"compound": "Cc1cccn2c(=O)c(C(=O)NCc3ccccc3Cl)c(O)nc12", "Potency": "inactive"}, {"compound": "COc1ccc(C2(C(=O)c3ccccc3)C(=O)c3ccccc3C2=O)cc1", "Potency": "inconclusive [inhibitor, single point]"}, {"compound": "Cc1ccc(C2(C(F)(F)F)NC(=O)N3C(=C2C#N)Nc2ccccc23)cc1", "note": "(stereo not drawn)", "Potency": "inconclusive [inhibitor, single point]"}, {"compound": "Cc1ccc(NC(=O)CC2SC3=NCCN3C2=O)cc1", "note": "(stereo not drawn)", "Potency": "inactive"}, {"compound": "COc1ccc2c(c1)c1nc(SCC(C)C)n(CCO)c(=O)c1n2C", "Potency": "inconclusive [activator, partial curve, poor fit]"}, {"compound": "CN(Cc1ccccc1)c1ccc(-c2nc(-c3ccco3)no2)cc1[N+](=O)[O-]", "Potency": "inactive"}, {"compound": "CCOC(=O)C1=C(c2ccccc2)OC(N)=C(C#N)C1c1ccc(Br)s1", "note": "(stereo not drawn)", "Potency": "inconclusive [inhibitor, partial curve, poor fit]"}, {"compound": "O=C(c1ccccc1Cl)N(Cc1ccco1)Cc1ccco1", "Potency": "inactive"}, {"compound": "O=C(Nc1cccc(C(F)(F)F)c1)OCCN1CCN(Cc2ccccc2)CCC1=O", "Potency": "inconclusive [inhibitor, single point]"}, {"compound": "COc1ccc(-n2nc(C(=O)Nc3ccc(Cl)cn3)c3c4ccccc4n(C)c3c2=O)cc1Cl", "Potency": "inconclusive [inhibitor, partial curve]"}, {"compound": "COc1ccc(CCN2C(=O)c3[nH]nc(-c4ccccc4O)c3C2c2cccc(OC)c2)cc1", "note": "(stereo not drawn)", "Potency": "inconclusive [inhibitor, partial curve]"}, {"compound": "Cc1cc(C(F)(F)F)nn1-c1nc(-c2ccccc2)cc(C(F)(F)F)n1", "Potency": "inconclusive [inhibitor, single point]"}, {"compound": "Cc1cc(=O)n(CC(=O)Nc2ccc([N+](=O)[O-])cc2)c(-n2nc(C)cc2C)n1", "Potency": "inactive"}, {"compound": "CC(C)(C)OC(=O)N1CCC(c2c(C(=O)NC3CCCCC3)cnn2-c2cccc(F)c2)CC1", "Potency": "inactive"}, {"compound": "Brc1ccc(C=Nc2ccc(Nc3ccccc3)cc2)s1", "Potency": "inconclusive [inhibitor, single point]"}, {"compound": "COC(=O)c1cc(NC(=O)c2cc(-c3ccccc3Cl)oc2C(F)(F)F)ccc1N1CCOCC1", "Potency": "inconclusive [activator, single point]"}, {"compound": "CCOc1ccc(NCc2cc3cc(OC)ccc3[nH]c2=O)cc1", "Potency": "inactive"}, {"compound": "CCN(CCNC(=O)c1ccc2nc(-c3ccccc3NC(C)=O)c(=O)[nH]c2c1)c1ccccc1", "Potency": "inconclusive [activator, single point]"}, {"compound": "COc1ccc(/C=N/NC(=O)c2ccncc2)cc1CN1CCOCC1", "Potency": "inactive"}, {"compound": "COc1cc(/C=C2\\SC(=O)N(Cc3ccc(Cl)cc3)C2=O)cc([N+](=O)[O-])c1O", "Potency": "inactive"}, {"compound": "CN1/C(=C\\P(=O)(N(C)C)N(C)C)C(C)(C)c2ccccc21", "Potency": "inconclusive [inhibitor, single point]"}, {"compound": "COc1ccc(N2C(=O)C(Cl)=C(N3CCCC3)C2=O)cc1", "Potency": "inconclusive [inhibitor, single point]"}, {"compound": "CCOC(=O)c1ccc(Oc2cn[nH]c2-c2ccc(O)cc2O)cc1", "Potency": "inconclusive [activator, full curve, poor fit]"}, {"compound": "CN1N=C(c2ccc(F)c(F)c2)CSC1=NCc1ccccc1", "Potency": "inconclusive [inhibitor, single point]"}, {"compound": "CCNS(=O)(=O)c1ccc(NC(=O)Nc2cccc(OC)c2)cc1", "Potency": "inconclusive [inhibitor, partial curve]"}, {"compound": "O=C(Nc1cccc(Cl)c1)c1cc(-c2ccc3c(c2)OCCO3)on1", "Potency": "inconclusive [inhibitor, partial curve]"}, {"compound": "CC(=O)c1c(CC(=O)O)[nH]n(-c2nc3ccccc3s2)c1=O", "Potency": "inconclusive [activator, single point]"}, {"compound": "COc1ccc(C)c2sc(N(Cc3cccnc3)C(C)=O)nc12", "Potency": "inconclusive [inhibitor, single point]"}, {"compound": "O=C(Nc1c(C(=O)N2CCN(c3ccc(F)cc3)CC2)oc2ccccc12)c1c(F)cccc1F", "Potency": "inconclusive [inhibitor, partial curve, poor fit]"}, {"compound": "O=C(O)[C@H]1[C@H]2C[C@H]3c4[nH]c5ccccc5c4CCN3C[C@@H]2CC[C@@H]1O", "Potency": "inactive"}, {"compound": "Cn1nc(C(F)(F)F)c2cc(C(=O)Nc3ccc(F)c(Cl)c3)sc21", "Potency": "inconclusive [inhibitor, single point]"}, {"compound": "COc1ccc(C(=O)CSc2nc3ccc([N+](=O)[O-])cc3[nH]2)cc1", "Potency": "inconclusive [inhibitor, partial curve, poor fit]"}, {"compound": "CCn1c(=NC(=O)c2ccc3c(c2)OCCO3)sc2c(C)ccc(OC)c21", "Potency": "inactive"}, {"compound": "O=C(c1ccc2c(c1)N(Cc1ccccc1)C(=O)c1ccccc1S2(=O)=O)N1CCN(c2ccccc2)CC1", "Potency": "inactive"}, {"compound": "COc1ccc(-c2nnc(SC(C)C(=O)Nc3cccc(Cl)c3)o2)cc1", "note": "(stereo not drawn)", "Potency": "inconclusive [inhibitor, single point]"}, {"compound": "Cc1ccc(-c2nnc(Nc3ccc(Br)cc3)c3ccccc23)cc1S(=O)(=O)N1CCN(C)CC1", "Potency": "inconclusive [inhibitor, single point]"}, {"compound": "CCC(=O)N1c2ccccc2CC1C(=O)NCc1cccc(C)c1", "note": "(stereo not drawn)", "Potency": "inactive"}, {"compound": "O=C1N=c2ccccc2=C1c1sc(NS(=O)(=O)c2ccccc2)nc1O", "Potency": "inactive"}, {"compound": "O=C(CSc1c(F)c(F)cc(F)c1F)Nc1ccc(C2SCCS2)cc1", "Potency": "inconclusive [inhibitor, partial curve]"}, {"compound": "Cc1cc(NC(=O)C(C)Oc2ccc(Cl)cc2Cl)n(-c2ccccc2)n1", "note": "(stereo not drawn)", "Potency": "inconclusive [inhibitor, single point]"}, {"compound": "CCCCCCCCCC(=O)O[C@H](CC(=O)O)C[N+](C)(C)C", "Potency": "inactive"}, {"compound": "CC1Cc2ccccc2N1C(=O)C1CCCN(S(=O)(=O)c2cccc3cccnc23)C1", "note": "(stereo not drawn)", "Potency": "inconclusive [activator, single point]"}, {"compound": "Clc1cccc(CSc2nncn3c2cc2sccc23)c1", "Potency": "inconclusive [inhibitor, partial curve]"}, {"compound": "CCOC(=O)c1oc2ccccc2c1NC(=O)C(C)(C)C", "Potency": "inconclusive [inhibitor, single point]"}, {"compound": "CCOc1ccc2nc(SCCNS(=O)(=O)c3ccccc3)sc2c1", "Potency": "inconclusive [inhibitor, partial curve, poor fit]"}, {"compound": "O=C(CSc1n[nH]c(=O)[nH]c1=O)N/N=C/c1ccccc1O", "Potency": "inactive"}, {"compound": "CCCCc1ccc(NC(=O)Cn2nnc3sc4c(c3c2=O)CCC(C)C4)cc1", "note": "(stereo not drawn)", "Potency": "inconclusive [inhibitor, partial curve]"}, {"compound": "COc1ccc(CCNC(=O)Cn2c(=O)n(-c3ccc(C)c(C)c3)c(=O)c3c(C)c(C)sc32)cc1OC", "Potency": "inactive"}, {"compound": "COc1ccc(C(=O)COC(=O)C(CCCCN2C(=O)C3C4C=CC(C4)C3C2=O)N2C(=O)C3C4C=CC(C4)C3C2=O)cc1", "note": "(stereo not drawn)", "Potency": "inactive"}, {"compound": "COC(=O)c1cnn(C(=O)c2ccccc2Br)c1N", "Potency": "inactive"}, {"compound": "CC(=O)N1CCc2cc(C(=O)CN3CCC(C)CC3)ccc21", "Potency": "inactive"}, {"compound": "Cc1ccc(/C=C/C(=O)Nc2cc(=O)n(C)c(=O)n2C)o1", "Potency": "inconclusive [inhibitor, partial curve]"}, {"compound": "CCCCN(CCCC)S(=O)(=O)c1ccc(NC(=O)c2ccc([N+](=O)[O-])cc2Cl)cc1", "Potency": "inconclusive [activator, single point]"}, {"compound": "Cc1ccc(OCc2nc(C#N)c(NCc3ccco3)o2)cc1", "Potency": "inconclusive [inhibitor, full curve, poor fit]"}, {"compound": "Cc1ccc(SCCC(=O)Nc2ccccc2C(=O)NC2CCCCC2)cc1", "Potency": "inconclusive [inhibitor, partial curve]"}, {"compound": "COc1ccc(NC(=O)Cn2ncc3c4ccccc4n(Cc4ccccc4)c3c2=O)cc1OC", "Potency": "inactive"}, {"compound": "CC(C)(C)c1cc(C(=O)NNC(=O)Nc2cccc(Cl)c2)n(Cc2ccccc2)n1", "Potency": "inconclusive [inhibitor, single point]"}, {"compound": "O=c1oc2ccccc2c(O)c1Cc1cc(Cl)c2cccnc2c1O", "Potency": "inconclusive [inhibitor, single point]"}, {"compound": "CC1=C(C(=O)NCc2ccco2)C2(CCC(C)CC2)OC1=O", "note": "(stereo not drawn)", "Potency": "inactive"}, {"compound": "CS(=O)(=O)Oc1ccc2c(c1)O/C(=C\\c1cccnc1)C2=O", "Potency": "inactive"}, {"compound": "O=C(NCCC1=CCCCC1)c1ccc([N+](=O)[O-])cc1", "Potency": "inconclusive [inhibitor, partial curve, poor fit]"}, {"compound": "COc1ccc2c(c1)C(=O)[C@H](OC(=O)Nc1ccc(OC(F)F)cc1)[C@@H](c1ccc(OC)c(Br)c1)O2", "Potency": "inactive"}, {"compound": "Cn1c(=O)c2c(nc(CN3CCN(C(=O)c4ccco4)CC3)n2Cc2ccc(F)cc2)n(C)c1=O", "Potency": "inconclusive [inhibitor, single point]"}, {"compound": "O=C(NCCN1CCN(Cc2ccccc2)CC1)C1c2ccccc2C(=O)N2CCc3ccccc3C12", "note": "(stereo not drawn)", "Potency": "inactive"}, {"compound": "Cn1c(CCCOc2ccc(Cl)cc2Cl)nnc1SCC(=O)Nc1cccc(F)c1", "Potency": "inconclusive [inhibitor, single point]"}, {"compound": "CC(=O)NN1C(=O)/C(=C/c2ccc(Br)o2)SC1=S", "Potency": "inconclusive [inhibitor, partial curve, poor fit]"}]}]}
